# Assay results reported in the supplement of paper PMC4604168 (melanoma cell lines).
# The list shows a part of the results. Many values rest on one well or one pass, so single values are uncertain.
# Tested on: C32
# Test: cell count relative to DMSO control; melanoma cells; higher = more viable cells
# Conditions: library dose: low library concentration; 72 h
# 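Also: cell number obtained by counting DAPI-stained nuclei in high-throughput microscope images with image analysis software, screen run in 1,536-well plates.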
row,SMILES,cell count
1,"CN(c1ncccc1CNc1nc(Nc2ccc3c(c2)CC(=O)N3)ncc1C(F)(F)F)S(C)(=O)=O + COc1ccc2c(c1)CCC1C2CCC2(C)C(NCCCCCCN3C(=O)C=CC3=O)CCC12 [U73122] (first compound 0.08 µM, partner dose 0.4 µM)",86.4%
2,"CCCS(=O)(=O)Nc1ccc(F)c(C(=O)c2c[nH]c3ncc(Cl)cc23)c1F + CCCCCCCCCCCC1=C(O)C(=O)C=C(O)C1=O [Embelin] (first compound 0.08 µM, partner dose 1.2 µM)",92.8%
3,"CN(c1ncccc1CNc1nc(Nc2ccc3c(c2)CC(=O)N3)ncc1C(F)(F)F)S(C)(=O)=O + Oc1nc(-c2ccc(C(F)(F)F)cc2)nc2c1CSCC2 [XAV939] (first compound 0.08 µM, partner dose 2 µM)",87.2%
4,"NC1(c2ccc(-c3nc4ccn5c(=O)[nH]nc5c4cc3-c3ccccc3)cc2)CCC1 + COc1ccc2c(c1)CCC1C2CCC2(C)C(NCCCCCCN3C(=O)C=CC3=O)CCC12 [U73122] (first compound 0.4 µM, partner dose 0.4 µM)",69.9%
5,"C=C(c1ccc(C(=O)O)cc1)c1cc2c(cc1C)C(C)(C)CCC2(C)C [Bexarotene] + O=C1NC(=O)/C(=C/c2ccc(-c3ccc(F)cc3O)o2)S1 [AS252424] (first compound 2 µM, partner dose 1 µM)",98.9%
6,"CN(c1ncccc1CNc1nc(Nc2ccc3c(c2)CC(=O)N3)ncc1C(F)(F)F)S(C)(=O)=O + COc1cc(N2CCC(N3CCN(C)CC3)CC2)ccc1Nc1ncc(Cl)c(Nc2ccccc2S(=O)(=O)C(C)C)n1 [NVP-TAE684] (first compound 0.08 µM, partner dose 0.08 µM)",65.8%
7,"CN(c1ncccc1CNc1nc(Nc2ccc3c(c2)CC(=O)N3)ncc1C(F)(F)F)S(C)(=O)=O + O=c1cc(-c2cccc3c2Sc2ccccc2S3)oc(N2CCOCC2)c1 [KU55933] (first compound 0.08 µM, partner dose 1 µM)",63.4%
8,"CN(c1ncccc1CNc1nc(Nc2ccc3c(c2)CC(=O)N3)ncc1C(F)(F)F)S(C)(=O)=O + N#Cc1c(O)c2c(-c3ccc(-c4ccccc4O)cc3)csc2[nH]c1=O [A769662] (first compound 0.08 µM, partner dose 2 µM)",84.5%
9,"CCCS(=O)(=O)Nc1ccc(F)c(C(=O)c2c[nH]c3ncc(Cl)cc23)c1F + Oc1cc(-c2nc(-c3ccccc3)[nH]c2-c2ccncc2)ccc1Cl [L779450] (first compound 0.08 µM, partner dose 0.2 µM)",87.3%
10,"NC1(c2ccc(-c3nc4ccn5c(=O)[nH]nc5c4cc3-c3ccccc3)cc2)CCC1 + O=C(O)C(=O)Nc1sc2c(c1C(=O)O)CCNC2 [TCS401] (first compound 0.4 µM, partner dose 1.66667 µM)",80.8%
11,"CN(c1ncccc1CNc1nc(Nc2ccc3c(c2)CC(=O)N3)ncc1C(F)(F)F)S(C)(=O)=O + Cn1cc(/C=C2\C(=O)Nc3cccnc32)c2ccccc21 [GW441756] (first compound 0.08 µM, partner dose 0.4 µM)",88.3%
12,"CS(=O)(=O)c1ccc(C(=O)Nc2ccc(Cl)c(-c3ccccn3)c2)c(Cl)c1 [vismodegib] + COc1cc2ncnc(Nc3ccc(Oc4ccccc4)cc3)c2cc1OC [SrcI1] (first compound 1 µM, partner dose 2 µM)",108%
13,"NC1(c2ccc(-c3nc4ccn5c(=O)[nH]nc5c4cc3-c3ccccc3)cc2)CCC1 + COc1ccc(-c2ccc3c(N4CCOCC4)nc(N4C[C@@H](C)O[C@@H](C)C4)nc3n2)cc1CO [KU0063794] (first compound 0.4 µM, partner dose 0.02 µM)",95.2%
14,"CN(c1ncccc1CNc1nc(Nc2ccc3c(c2)CC(=O)N3)ncc1C(F)(F)F)S(C)(=O)=O + O=C1NC(=O)/C(=C/c2ccc(-c3ccc(F)cc3O)o2)S1 [AS252424] (first compound 0.08 µM, partner dose 1 µM)",80.6%
15,"CS(=O)(=O)c1ccc(C(=O)Nc2ccc(Cl)c(-c3ccccn3)c2)c(Cl)c1 [vismodegib] + COc1ccc(COc2ccc(Cc3cnc(N)nc3N)cc2OC)cc1 [GW2580] (first compound 1 µM, partner dose 1 µM)",109%
